Laboratory results: PubChem BioAssay AID504333 (National Center for Advancing Translational Sciences (NCATS), 2011)
About 16,000 (4.4%) of roughly 360,000 compounds were called active. The inconclusive results got no clear call from the source; some entries with a clear call stand among them for comparison. Calls come from the whole dose curve; as a rule, active = well fitted inhibition curve with a large enough effect; inconclusive = small, poorly fitted or top-dose-only effect; inactive = no such curve, though single readings can be large or run the other way. Potencies of inconclusive entries are doubtful fits and often do not repeat.

Each compound was assayed against Bromodomain adjacent to zinc finger domain protein 2B (Homo sapiens) (UniProt Q9UIF8) (assay: qHTS Assay for Inhibitors of BAZ2B). Settings: AlphaScreen BAZ2B-H3K14Ac peptide displacement; series mostly up to 114 µM.
Chain of UniProt Q9UIF8 (Q9UIF8 whole entry, looked up, the tested form may be a part): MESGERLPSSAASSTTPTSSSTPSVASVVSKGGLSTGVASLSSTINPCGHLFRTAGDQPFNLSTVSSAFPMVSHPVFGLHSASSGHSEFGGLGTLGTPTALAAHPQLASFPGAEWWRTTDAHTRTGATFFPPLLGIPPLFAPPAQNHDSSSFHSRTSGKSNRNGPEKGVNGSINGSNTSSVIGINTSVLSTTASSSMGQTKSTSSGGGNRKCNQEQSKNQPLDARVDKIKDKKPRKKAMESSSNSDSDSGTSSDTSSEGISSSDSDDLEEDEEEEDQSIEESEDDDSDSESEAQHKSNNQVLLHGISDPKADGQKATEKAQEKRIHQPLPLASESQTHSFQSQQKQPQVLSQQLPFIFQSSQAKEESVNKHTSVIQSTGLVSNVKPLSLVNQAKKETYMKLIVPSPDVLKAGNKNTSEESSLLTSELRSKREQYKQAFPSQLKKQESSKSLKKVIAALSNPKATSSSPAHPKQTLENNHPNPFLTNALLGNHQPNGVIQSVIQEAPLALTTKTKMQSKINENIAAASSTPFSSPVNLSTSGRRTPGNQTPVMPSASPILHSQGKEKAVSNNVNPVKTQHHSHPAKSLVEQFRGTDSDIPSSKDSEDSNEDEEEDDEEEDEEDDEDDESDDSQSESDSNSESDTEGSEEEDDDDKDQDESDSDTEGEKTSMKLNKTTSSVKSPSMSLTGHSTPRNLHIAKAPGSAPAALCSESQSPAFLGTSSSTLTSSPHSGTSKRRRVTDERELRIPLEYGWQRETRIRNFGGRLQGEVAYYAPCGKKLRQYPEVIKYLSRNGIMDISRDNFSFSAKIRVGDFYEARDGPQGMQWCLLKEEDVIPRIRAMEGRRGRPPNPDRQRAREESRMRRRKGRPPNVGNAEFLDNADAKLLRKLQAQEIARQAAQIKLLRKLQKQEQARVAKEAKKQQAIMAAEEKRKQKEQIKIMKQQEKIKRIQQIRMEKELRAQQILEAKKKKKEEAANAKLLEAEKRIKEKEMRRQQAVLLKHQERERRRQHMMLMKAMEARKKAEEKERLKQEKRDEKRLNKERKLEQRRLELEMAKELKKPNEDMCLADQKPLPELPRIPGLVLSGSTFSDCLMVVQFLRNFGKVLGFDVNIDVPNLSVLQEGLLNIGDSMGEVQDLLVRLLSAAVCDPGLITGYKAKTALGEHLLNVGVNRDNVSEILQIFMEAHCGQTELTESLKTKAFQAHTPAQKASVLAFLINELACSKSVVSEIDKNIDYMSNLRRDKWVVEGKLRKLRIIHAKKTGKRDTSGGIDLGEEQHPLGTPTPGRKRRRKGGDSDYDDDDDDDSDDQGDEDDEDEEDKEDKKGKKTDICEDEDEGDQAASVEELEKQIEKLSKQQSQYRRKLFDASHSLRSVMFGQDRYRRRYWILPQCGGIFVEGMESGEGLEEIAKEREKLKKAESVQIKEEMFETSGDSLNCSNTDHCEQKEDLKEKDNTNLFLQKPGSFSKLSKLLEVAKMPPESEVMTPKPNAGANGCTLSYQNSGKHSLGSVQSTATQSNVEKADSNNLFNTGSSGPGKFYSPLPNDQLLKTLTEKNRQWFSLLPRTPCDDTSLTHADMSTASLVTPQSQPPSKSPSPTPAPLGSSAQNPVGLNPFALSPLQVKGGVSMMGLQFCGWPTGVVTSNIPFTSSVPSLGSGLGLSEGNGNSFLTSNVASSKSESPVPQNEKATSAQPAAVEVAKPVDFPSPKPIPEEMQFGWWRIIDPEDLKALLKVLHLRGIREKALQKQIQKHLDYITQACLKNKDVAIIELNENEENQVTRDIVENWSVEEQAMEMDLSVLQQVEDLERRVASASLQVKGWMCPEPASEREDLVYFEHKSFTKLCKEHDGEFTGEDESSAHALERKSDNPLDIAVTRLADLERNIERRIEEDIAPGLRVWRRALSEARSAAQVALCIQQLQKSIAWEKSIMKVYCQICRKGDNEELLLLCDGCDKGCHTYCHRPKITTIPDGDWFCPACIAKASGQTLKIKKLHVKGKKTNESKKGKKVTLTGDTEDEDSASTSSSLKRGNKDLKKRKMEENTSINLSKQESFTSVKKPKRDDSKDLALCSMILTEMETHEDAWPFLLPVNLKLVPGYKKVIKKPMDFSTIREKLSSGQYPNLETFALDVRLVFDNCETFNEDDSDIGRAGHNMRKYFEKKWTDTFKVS
Procedure, shortened: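 AlphaScreen luminescence quantifies BAZ2B engagement of H3K14Ac peptide; the protein and biotinylated peptide are both at 50 nM final, buffer PBS pH 7.4 with 0.01% Tween-20, all steps at room temperature.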
Note: nearly all actives have a fitted effect of over 60% in size.
Potency is the fitted concentration of half-maximal effect; tags give direction and shape of the fitted curve.

Row | SMILES | Potency
1 | Cn1cnnc1SCC(=O)c1cc2ccccc2oc1=O | inconclusive: 56.2 µM [inhibitor, partial curve]
2 | CCOC(=O)C[n+]1c(C)sc2ccc(OC)cc21 | inconclusive: 79.4 µM [inhibitor, single point]
3 | O=C(/C=C/c1ccc2c(c1)OCCCO2)c1ccccc1O | inconclusive: 20 µM [inhibitor, partial curve]
4 | CCCCCC#CCC#CCC#CCC#CCCCC(=O)O | active: 3.98 µM
5 | Cc1ccc(CN2C(=O)C(O)(CC(=O)c3ccc(C)cc3)c3ccccc32)cc1 (configuration not stated) | active: 12.6 µM
6 | COc1cc(S(=O)(=O)N2CC(=O)Nc3ccccc32)ccc1NC(C)=O | inactive
7 | Cc1sc2nc(N)sc2c1C | inconclusive: 89.1 µM [inhibitor, single point]
8 | O=C(COC(=O)c1cncc(Br)c1)NCCC1=CCCCC1 | inactive
9 | COc1ccc(C(=O)c2cnc3ccc(C)cc3c2S(=O)(=O)c2ccccc2)cc1 | inconclusive: 22.4 µM [inhibitor, full curve]
10 | CCc1ccc2c(c1)C(NC(C)=O)C(=O)N2CCN1CCOCC1 (configuration not stated) | active: 12.6 µM
11 | Cc1cccn2c(=O)c(/C=C(\C#N)C(=O)NCc3ccco3)c(N3CCCCC3)nc12 | inconclusive: 39.8 µM [inhibitor, full curve, poor fit]
12 | CC(C)c1cc(C(=O)O)n[nH]1 | inconclusive: 89.1 µM [inhibitor, single point]
13 | COc1ccc(S(=O)(=O)N2CCC(C(=O)NC(C)c3ccccc3)CC2)cc1 (configuration not stated) | inactive
14 | NS(=O)(=O)c1ccc(NC(=S)NC2CCCCC2)cc1 | inactive
15 | CCOc1ccc(N2C(=O)CC(Sc3nc(C)cc(C)c3C#N)C2=O)cc1 (configuration not stated) | inconclusive: 89.1 µM [inhibitor, partial curve]
16 | O=C(O/N=C\c1ccc(N2CCCCC2)c([N+](=O)[O-])c1)c1c(F)cccc1F | inconclusive: 5.62 µM [inhibitor, full curve]
17 | CCOc1cc(/C=N/Nc2nnc(C)n2N)ccc1O | inconclusive: 79.4 µM [inhibitor, single point]
18 | CCC(C)Nc1nc(-c2cccc(OC)c2O)nc2ccccc12 (configuration not stated) | inconclusive: 50.1 µM [inhibitor, partial curve]
19 | CCOC(=O)COn1c(=O)c(-c2ccc(C)cc2)[n+]([O-])c2ccccc21 | inactive
20 | COc1cc2nc(NCC(C)c3ccccc3)n3nc(-c4ccccc4)nc3c2cc1OC (configuration not stated) | inconclusive: 7.08 µM [inhibitor, full curve, poor fit]
21 | COc1ccc(N=C2NN=C(c3ccc4c(c3)OCCO4)CS2)cc1 | inconclusive: 50.1 µM [inhibitor, partial curve]
22 | O=C(Nc1nnc(C2CC2)s1)c1cc(Cl)sc1Cl | inactive
23 | COc1ccc(OC)c(-n2c(-c3cccc(C)c3)n[nH]c2=S)c1 | inconclusive: 79.4 µM [inhibitor, single point]
24 | CC(C)CC(=O)Nc1ccc(Cl)c(-c2nc3ccccc3[nH]2)c1 | inactive

Row | SMILES | Potency
25 | O=C(OCC(=O)N1CCN(C(=O)c2ccco2)CC1)c1cc(-c2ccco2)nc2ccccc12 | active: 20 µM
26 | Cc1nc2cc(C(=O)O)ccc2n1-c1ccc(C(C)C)cc1 | inconclusive: 89.1 µM [inhibitor, single point]
27 | CCCc1cc(=O)[nH]c2nnc(SCC(=O)Nc3nnc(CC)s3)n12 | inactive
28 | Cc1ccc(C(C(=O)Nc2ccc3c(c2)OCO3)N(C)C(=O)/C=C\c2ccc3c(c2)OCO3)cc1 (configuration not stated) | inconclusive: 20 µM [inhibitor, full curve, poor fit]
29 | C#CCOCCOCCOCCNc1nc(N2CCN(C(=O)C([C@@H](C)CC)n3cc(C(N)CO)nn3)CC2)nc(N2CCN(C(=O)[C@H](CCC(=O)O)n3cc(C(N)[C@H](C)CC)nn3)CC2)n1 (some centres not stated) | active: 35.5 µM
30 | CCCN(CCC(=O)Nc1cc(OC)cc(OC)c1)CC1CC1 | inconclusive: 89.1 µM [inhibitor, single point]
31 | S=c1[nH]nc(-c2cc(-c3ccsc3)n[nH]2)n1-c1ccccc1 | inconclusive: 79.4 µM [inhibitor, single point]
32 | COc1ccc(Nc2ccc([N+](=O)[O-])c3nonc23)c(OC)c1 | inactive
33 | CC1CCN(CCOCCOc2ccc(Br)cc2Cl)CC1 | inconclusive: 89.1 µM [inhibitor, single point]
34 | O=C(CSc1n[nH]c(-c2ccccn2)n1)Nc1cccc(Cl)c1 | active: 5.01 µM
35 | COc1cc(NC(=O)C(CCS(C)(=O)=O)N2Cc3ccccc3C2=O)cc(OC)c1OC (configuration not stated) | inconclusive: 89.1 µM [inhibitor, single point]
36 | CC1=NN(c2nc3ccccc3[nH]2)C(=O)C1Cc1ccccc1 (configuration not stated) | active: 22.4 µM
37 | COc1ccc(C)cc1NC(=O)c1nn(-c2ccccc2)cc1OC | inactive
38 | COc1ccccc1C(OC(=O)c1cccs1)C(=O)NCc1ccco1 (configuration not stated) | inconclusive: 89.1 µM [inhibitor, single point]
39 | CC(C)c1nnc(NC(=O)c2nc(S(=O)(=O)Cc3ccccc3F)ncc2Cl)s1 | inconclusive: 44.7 µM [inhibitor, partial curve]
40 | COCC(=O)Nc1nc(-c2ccccc2)c(C)s1 | inactive
41 | CCOc1ccccc1CN(CCc1ccc2c(c1)OCO2)Cc1cccc(OC)c1OC | active: 50.1 µM
42 | CCOc1cc(/C=N/NC(=O)c2ccc(-c3csc(Nc4ccc(C)cc4)n3)cc2)ccc1OCC(=O)O | active: 25.1 µM
43 | O=[N+]([O-])c1ccccc1/C=C/C=N/n1c(-c2ccco2)n[nH]c1=S | inconclusive: 89.1 µM [inhibitor, single point]
44 | Nc1cccc(Nc2ccccc2)c1 | inconclusive: 56.2 µM [inhibitor, partial curve]
45 | CCN(CC(=O)Nc1ccccc1C(F)(F)F)C(=O)CSCC(=O)Nc1cc(C)on1 | inconclusive: 79.4 µM [inhibitor, single point]
46 | CCc1ccc(-c2cc(C)no2)cc1S(=O)(=O)Nc1ccc(Cl)cc1 | inactive
47 | COc1cc(C(=O)OC(C)C(=O)N2CCCC2)cc2c1OCCO2 (configuration not stated) | inconclusive: 3.98 µM [inhibitor, single point]
48 | COc1ccc(CNC(=O)CN(C)Cc2ccc(C(C)(C)C)cc2)cc1 | active: 22.4 µM

Row | SMILES | Potency
49 | COc1cc(CNC2CCCCCCC2)cc(Cl)c1OC | inactive
50 | COc1ccc(CCNCC(O)COc2ccc(OC)cc2C(C)(C)C)cc1 (configuration not stated) | active: 70.8 µM
51 | COc1ccc(OCC(=O)NCCCn2ccnc2)cc1 | inconclusive: 89.1 µM [inhibitor, single point]
52 | CCn1c(=O)c2ccccc2n2c(SCC(N)=O)nnc12 | inactive
53 | CC(=O)OCCNc1cc(Sc2nc3ccccc3[nH]2)c2nonc2c1[N+](=O)[O-] | inconclusive: 50.1 µM [inhibitor, partial curve]
54 | Cc1sc(N)nc1C12CC3CC(CC(C3)C1)C2 | inconclusive: 25.1 µM [inhibitor, full curve]
55 | Cc1cc2cc(CN(Cc3ccco3)C(=S)NCC3CCCO3)c(=O)[nH]c2cc1C (configuration not stated) | inconclusive: 44.7 µM [inhibitor, partial curve]
56 | O=C(c1ccc(-c2cc3ccccc3oc2=O)cc1)N1CCN(c2ccc(Cl)cc2[N+](=O)[O-])CC1 | inconclusive: 39.8 µM [inhibitor, partial curve]
57 | CCOC(=O)c1c(NC(=O)C(C)Sc2c[nH]c3ccccc23)sc2c1CCC2 (configuration not stated) | inconclusive: 35.5 µM [inhibitor, partial curve]
58 | Oc1ccccc1N=Cc1ccc[nH]1 | inconclusive: 89.1 µM [inhibitor, single point]
59 | CCOc1ccccc1/C=N/Nc1ccccc1[N+](=O)[O-] | inconclusive: 1.41 µM [inhibitor, full curve]
60 | C#CCOCCOCCOCCNc1nc(N2CCN(C(=O)Cn3cc(CCCN=C(N)N)nn3)CC2)nc(N2CCN(C(=O)[C@H](CCCCN)n3cc(CCCC)nn3)CC2)n1 | active: 79.4 µM
61 | CC(=O)Nc1ccc(S(=O)(=O)NCCc2csc3nc(-c4cccc(C)c4)nn23)cc1 | inactive
62 | Cc1ccc(N(Cc2cccs2)C(=O)COc2ccccc2[N+](=O)[O-])cc1 | inconclusive: 79.4 µM [inhibitor, single point]
63 | Cc1nnc(NC(=O)COc2ccc3c(C)cc(=O)oc3c2)s1 | inconclusive: 89.1 µM [inhibitor, single point]
64 | CCCCOc1ccc(CN2CCC(O)CC2)cc1 | inconclusive: 89.1 µM [inhibitor, single point]
65 | COc1ccc(C(=O)NCCSc2c(C)[nH]c3ccccc23)cc1 | active: 70.8 µM
66 | COc1cc(C)c(Cl)cc1S(=O)(=O)NC1CC(C)(C)NC(C)(C)C1 | inactive
67 | C=CCn1c(=O)c(C(=O)NCCNCC)c(O)c2ccccc21 | inconclusive: 100 µM [inhibitor, single point]
68 | COc1ccc(CN(CCc2ccccc2)Cc2ccccc2)cc1OC | active: 79.4 µM
69 | CN1CC(=O)N/C1=N\C(=O)Nc1ccc2c(c1)N(C)C(=O)CS2 | inconclusive: 100 µM [inhibitor, single point]
70 | O=C(Nc1ccc(NC(=O)c2ccco2)nc1)c1ccccn1 | inconclusive: 3.55 µM [inhibitor, full curve, poor fit]
71 | CCN1CCN(c2cc(C)c3cc(NC(=O)/C=C/c4cccc(Cl)c4)ccc3n2)CC1 | inconclusive: 12.6 µM [inhibitor, full curve, poor fit]
72 | CCOC(=O)c1c(-c2ccc(-c3ccccc3)cc2)csc1NC(=O)C1C2CCC(O2)C1C(=O)O (configuration not stated) | inconclusive: 79.4 µM [inhibitor, single point]
